In PubChem BioAssay (Tox21):
“And” between values parts separate entries of the source, which are not always exact repeats. Equal entries are not always repeated. Inconclusive means that the source gave no clear call. Such entries were picked first, then a sample of the others. Potencies beside an inconclusive call are fits to weak or partial responses and may not hold up. The source made the active and inactive calls. The call rests on the fitted dose curve; in most records, active means well fitted curve in the direction sought with a large enough effect in the repeat runs; inconclusive means weak or mixed curves; inactive means no such curve, though single readings can be large; an effect the other way counts as inactive or inconclusive.

Biological target: Cytochrome P450 1A2 (Homo sapiens) (UniProt P05177)
UniProt P05177, sequence (P05177 whole entry, looked up): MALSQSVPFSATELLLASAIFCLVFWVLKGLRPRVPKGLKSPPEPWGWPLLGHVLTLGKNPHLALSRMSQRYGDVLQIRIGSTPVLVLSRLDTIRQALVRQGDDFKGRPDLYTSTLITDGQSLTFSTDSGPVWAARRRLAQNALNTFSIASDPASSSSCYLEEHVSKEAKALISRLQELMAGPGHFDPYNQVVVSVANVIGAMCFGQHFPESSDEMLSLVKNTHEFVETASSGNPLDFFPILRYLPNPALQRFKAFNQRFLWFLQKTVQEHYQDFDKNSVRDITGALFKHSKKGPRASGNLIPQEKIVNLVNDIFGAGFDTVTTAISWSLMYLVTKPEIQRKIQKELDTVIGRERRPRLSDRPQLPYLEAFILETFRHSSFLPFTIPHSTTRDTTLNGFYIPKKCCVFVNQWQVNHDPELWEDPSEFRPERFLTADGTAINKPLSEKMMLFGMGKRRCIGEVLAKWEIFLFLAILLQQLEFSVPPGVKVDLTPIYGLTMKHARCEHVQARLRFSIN
Assay: Cytochrome P450 Family 1 Subfamily A Member 2 (CYP1A2) small molecule antagonists: luciferase reporter qHTS assay (AID 1671199)
Conditions: P450-Glo CYP1A2 enzyme, luciferin luminescence, 1 h; series mostly up to 115 µM; activity change, negative = inhibition: at the top concentration
In short: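 Human CYP1A2 activity measured with a P450-Glo proluciferin substrate; compounds in DMSO preincubated 10 min at room temperature with enzyme-substrate mix, then NADPH regeneration system added for 1 h. Luciferin detection reagent, 20 min, luminescence read.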
Further: nearly all actives have a fitted effect of over 50% in size.
On the % scale 0 is the no-effect control and ±100 the full control effect; potency means the concentration at half of the fitted maximal effect; tags describe the fitted curve by direction and shape.

Structure (SMILES) | Potency | activity change, negative = inhibition
C/C=C(\C)C(=O)OCC/C=C\CC | inconclusive: 63.3 µM [inhibitor] | 
CCCC(C)C(=O)OCC (stereo unspecified) |  | inactive: -9.12%
CC(C)Nc1ccccc1 | inconclusive: 39 µM [inhibitor, partial curve] | 
C1COC1 |  | inactive: -13.2%
CC(=O)CC(C)(C)C1CCCCC1 | inconclusive: 79.6 µM [inhibitor, partial curve, poor fit] | 
O=C1CC2(CCCC2)CC(=O)N1 |  | inactive: -9.54% [at 53 µM]
CC(C)(C)C(=O)c1ccccc1 | inconclusive: 50.2 µM [inhibitor, partial curve] | 
CCCCCCCCCCC=O | inconclusive: 64.6 µM [inhibitor, partial curve, poor fit] | 
CC(=O)O[C@@H]1C(=O)O[C@@H]2[C@H]1OC(=O)[C@@H]2OC(C)=O | inconclusive: 30.9 µM [inhibitor, partial curve] | 
COC(=O)c1ccc(C)cc1 | inconclusive: 65 µM [inhibitor, partial curve, poor fit] and inconclusive: 63.3 µM [inhibitor, partial curve, poor fit] | 
C=C(C)C(=O)OCC(O)COc1ccc(C(C)(C)c2ccc(OCC(O)COC(=O)C(=C)C)cc2)cc1 (stereo unspecified) | inconclusive: 63.3 µM [inhibitor, partial curve] | 
CC1(C)CCC[C@]2(C)[C@H]3CCO[C@]3(C)CC[C@@H]12 |  | inactive: -13%
CC(C)CCOCc1ccccc1 | inconclusive: 71 µM [inhibitor, partial curve] | 
O=Cc1ccc(Cl)c(Cl)c1 | inconclusive: 41 µM [inhibitor, partial curve] | 
Cc1ccc(C=O)s1 | inconclusive: 79.6 µM [inhibitor, partial curve, poor fit] | 
C[C@@H]1C[C@H]2[C@@H]3CCC4=CC(=O)C=C[C@]4(C)[C@@]3(F)[C@@H](O)C[C@]2(C)[C@@]1(O)C(=O)CO | inconclusive: 72 µM [inhibitor, partial curve] | 
C[C@]12CCC(=O)C=C1CC[C@@H]1[C@@H]2[C@@H](O)C[C@@]2(C)[C@H]1CC[C@]2(O)C(=O)COC(=O)CCC(=O)O |  | inactive: -4.53% [at 53 µM]
CC(C)(O)c1coc(S(=O)(=O)NC(=O)Nc2c3c(cc4c2CCC4)CCC3)c1 | active: 17.8 µM | 
CC(=O)c1c(C)cc(C(C)(C)C)cc1C | inconclusive: 35.6 µM [inhibitor, partial curve] | 
CCCCCCCCCCCCCC(=O)OC |  | inactive: -0.194%
CCc1cccc(CC)c1NC(=O)CN(CC(=O)O)CC(=O)O |  | inactive: 2.98% [at 53 µM]
Cc1cc(C(C)(C)C)c(O)c(C)c1CC1=NCCN1 |  | inactive: 1.59% [at 53 µM]
C[Si](C)(C)Cl | inconclusive: 77.2 µM [inhibitor, partial curve, poor fit] | 
CC(C)(C)C1CCC(=O)CC1 | inconclusive: 35.6 µM [inhibitor, partial curve] | 
O=C1c2ccccc2C(=O)c2cc(Cl)ccc21 | active: 0.138 µM | 
CCCCCCCCCCCCCCCBr | inconclusive: 27.5 µM [inhibitor, partial curve] | 
CN(C)CCCN(C)CCCN(C)C | inconclusive: 79.6 µM [inhibitor, partial curve, poor fit] | 
CCCCCCCCCC/C=C/C#N | inconclusive: 71 µM [inhibitor, partial curve, poor fit] | 

Biological target: Voltage-gated inwardly rectifying potassium channel KCNH2 (Homo sapiens) (UniProt Q12809)
UniProt Q12809, sequence (Q12809 whole entry, looked up): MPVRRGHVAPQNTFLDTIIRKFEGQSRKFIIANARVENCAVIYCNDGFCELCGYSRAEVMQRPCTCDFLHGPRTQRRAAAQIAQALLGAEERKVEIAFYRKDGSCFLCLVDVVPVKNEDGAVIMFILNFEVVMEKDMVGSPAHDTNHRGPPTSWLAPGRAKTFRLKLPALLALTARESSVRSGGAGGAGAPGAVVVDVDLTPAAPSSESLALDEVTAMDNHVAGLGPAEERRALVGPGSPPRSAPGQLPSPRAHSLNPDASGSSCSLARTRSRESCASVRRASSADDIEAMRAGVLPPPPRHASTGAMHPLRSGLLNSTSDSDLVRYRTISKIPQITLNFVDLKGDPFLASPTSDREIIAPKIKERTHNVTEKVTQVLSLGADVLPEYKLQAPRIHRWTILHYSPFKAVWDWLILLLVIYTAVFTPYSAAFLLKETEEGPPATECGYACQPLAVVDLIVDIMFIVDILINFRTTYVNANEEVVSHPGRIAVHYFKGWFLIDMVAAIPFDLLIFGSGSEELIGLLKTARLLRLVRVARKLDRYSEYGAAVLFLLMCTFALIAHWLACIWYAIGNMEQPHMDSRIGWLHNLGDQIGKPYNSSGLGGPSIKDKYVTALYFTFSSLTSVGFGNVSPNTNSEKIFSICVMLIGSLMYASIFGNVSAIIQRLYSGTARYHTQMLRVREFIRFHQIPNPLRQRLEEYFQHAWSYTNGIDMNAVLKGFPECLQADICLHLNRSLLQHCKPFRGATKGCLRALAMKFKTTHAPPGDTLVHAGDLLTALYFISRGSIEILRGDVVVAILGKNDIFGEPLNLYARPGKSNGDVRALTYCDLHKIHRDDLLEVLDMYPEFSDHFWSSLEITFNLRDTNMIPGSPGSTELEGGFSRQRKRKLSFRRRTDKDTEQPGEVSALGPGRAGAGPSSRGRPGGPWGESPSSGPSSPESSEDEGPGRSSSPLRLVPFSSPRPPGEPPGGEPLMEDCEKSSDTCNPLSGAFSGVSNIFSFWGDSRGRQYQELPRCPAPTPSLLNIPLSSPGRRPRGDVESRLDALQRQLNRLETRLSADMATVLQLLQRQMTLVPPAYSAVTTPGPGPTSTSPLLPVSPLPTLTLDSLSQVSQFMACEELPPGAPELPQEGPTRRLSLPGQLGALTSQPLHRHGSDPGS
Assay: Human Ether-a-go-go-Related Gene (hERG) channel small molecule antagonists: fluorescence cell-based qHTS assay (AID 1671200);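 on activity change, negative = inhibition: hERG-expressing U2OS cells given a thallium stimulus after FluxOR II dye loading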
Conditions: hERG-U2OS cells, FluxOR thallium flux fluorescence; series mostly up to 76.8 µM; activity change, negative = inhibition: at the top concentration
In short: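 Read-out: thallium influx as a surrogate for potassium, tracked as fluorescence (480 nm ex/540 nm em) every second for 2 min after Stimulus Buffer addition in dye-loaded hERG-U2OS cells.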

Structure (SMILES) | activity change, negative = inhibition | Potency
NC(=O)CC[C@@H](N)C(=O)O | inactive: 4.02% [at 35.3 µM] | 
CN(C)c1ccncc1 | inactive: -4.4% | 
Cc1cc(C(C)(C)C)c(O)c(C)c1CC1=NCCN1 |  | inconclusive: 21.3 µM [inhibitor, partial curve]
CCCCCOc1ccccc1/C(=C\SC)n1ccnc1 |  | active: 15.1 µM
COCCc1ccc(OCC(O)CNC(C)C)cc1 (stereo unspecified) |  | inconclusive: 19 µM [inhibitor, partial curve]

Biological target: Cytochrome P450 3A4 (Homo sapiens) (UniProt P08684)
UniProt P08684, sequence (P08684 whole entry, looked up): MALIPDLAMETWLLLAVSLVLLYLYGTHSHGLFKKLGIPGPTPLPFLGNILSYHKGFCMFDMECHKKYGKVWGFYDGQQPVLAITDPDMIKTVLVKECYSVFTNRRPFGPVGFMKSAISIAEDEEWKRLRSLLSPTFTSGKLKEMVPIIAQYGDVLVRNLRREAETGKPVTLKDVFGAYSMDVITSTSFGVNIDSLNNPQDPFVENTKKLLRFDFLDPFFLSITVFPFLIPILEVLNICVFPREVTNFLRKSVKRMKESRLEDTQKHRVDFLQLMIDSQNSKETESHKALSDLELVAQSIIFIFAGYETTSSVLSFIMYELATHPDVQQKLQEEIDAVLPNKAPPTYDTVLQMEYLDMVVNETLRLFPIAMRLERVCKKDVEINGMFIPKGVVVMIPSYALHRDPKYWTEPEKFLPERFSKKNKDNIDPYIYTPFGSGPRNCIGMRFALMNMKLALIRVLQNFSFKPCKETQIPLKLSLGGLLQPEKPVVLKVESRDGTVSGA
Assay: Cytochrome P450 Family 3 Subfamily A Member 4 (CYP3A4) small molecule antagonists: luciferase reporter qHTS assay (AID 1671201)
Conditions: P450-Glo CYP3A4 enzyme, luciferin luminescence, 1 h; series mostly up to 115 µM; activity change, negative = inhibition: at the top concentration
In short: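 Luminescent readout (RLU) proportional to CYP3A4 activity, from luciferin generated off a proluciferin substrate. Enzyme–substrate mix plus compound 10 min at room temp, NADPH regeneration 1 h, detection reagent 20 min.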

Structure (SMILES) | Potency | activity change, negative = inhibition
CCCC(C)C(=O)O (stereo unspecified) | inconclusive: 60.7 µM [inhibitor, partial curve] | 
O=C(NO)C1(NS(=O)(=O)c2ccc(Oc3ccc(F)cc3)cc2)CCOCC1 | inconclusive: 79.6 µM [inhibitor, partial curve, poor fit] | 
CO[Si](OC)(OC)c1ccccc1 | inconclusive: 56.4 µM [inhibitor, partial curve] | 
C=CCOCC(CC)(CO)COCC=C | inconclusive: 35.6 µM [inhibitor, partial curve] | 
Cc1occc1S | active: 28.3 µM | 
Cc1cc2c(cc1C(F)(F)F)N(C(=O)Nc1ccc(Oc3cccnc3C)nc1)CC2 | active: 20.3 µM | 
COc1cc(CNC(=O)CCCC/C=C/C(C)C)ccc1O | active: 12.3 µM | 
Cc1c(NC(C)C)c(=O)n(-c2ccccc2)n1C |  | inactive: -3.67% [at 52.9 µM]
